# Some of the results follow.
# Columns and labels:
# Assay in all cases: glycan array binding signal (z-score within array); higher = stronger binding
# Conditions in all cases: glycan notation: IUPAC condensed, linker removed
# [1] = biological target: Gal(b1-3)GalNAc(b1-3)Gal(a1-4)Gal(b1-4)Glc
# Procedure, shortened: (§1)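 Negative Z-scores can be read as non-binding. The Z-score is calculated within each array and then averaged across arrays of one protein sequence at different concentrations or buffers and across linkers. Arrays, 3228 in all, were curated from the Consortium for Functional Glycomics database and kept only where the protein sequence was available.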
# [2] = biological target: Gal(b1-3)GalNAc(b1-4)Gal(b1-4)Glc
# Procedure, shortened: as §1
# [3] = biological target: Gal(b1-3)GalNAc(b1-4)[Neu5Ac(a2-3)]Gal(b1-4)Glc
# Procedure, shortened: as §1
# Gal(b1-3)GlcNAc = biological target: Gal(b1-3)GlcNAc
# Procedure, shortened: as §1
# [4] = biological target: Gal(b1-3)GlcNAc(a1-3)Gal(b1-4)GlcNAc
# Procedure, shortened: as §1
# [5] = biological target: Gal(b1-3)GlcNAc(a1-6)Gal(b1-4)GlcNAc
# Procedure, shortened: as §1
# Gal(b1-3)GlcNAc(b1-2)Man = biological target: Gal(b1-3)GlcNAc(b1-2)Man
# Procedure, shortened: as §1
# [6] = biological target: Gal(b1-3)GlcNAc(b1-2)Man(a1-3)[Gal(b1-3)GlcNAc(b1-2)Man(a1-6)]Man(b1-4)GlcNAc(b1-4)GlcNAc
# Procedure, shortened: as §1
# [7] = biological target: Gal(b1-3)GlcNAc(b1-2)Man(a1-3)[Gal(b1-3)GlcNAc(b1-2)Man(a1-6)]Man(b1-4)GlcNAc(b1-4)[Fuc(a1-6)]GlcNAc
# Procedure, shortened: as §1
# [8] = biological target: Gal(b1-3)GlcNAc(b1-2)Man(a1-3)[GlcNAc(b1-4)][Gal(b1-3)GlcNAc(b1-2)Man(a1-6)]Man(b1-4)GlcNAc(b1-4)GlcNAc
# Procedure, shortened: as §1
# [9] = biological target: Gal(b1-3)GlcNAc(b1-2)[Gal(b1-3)GlcNAc(b1-6)]Man(a1-6)[Gal(b1-3)GlcNAc(b1-2)Man(a1-3)]Man(b1-4)GlcNAc(b1-4)GlcNAc
# Procedure, shortened: as §1
# [10] = biological target: Gal(b1-3)GlcNAc(b1-3)Gal(b1-3)GlcNAc
# Procedure, shortened: as §1
# [11] = biological target: Gal(b1-3)GlcNAc(b1-3)Gal(b1-4)Glc
# Procedure, shortened: as §1
# [12] = biological target: Gal(b1-3)GlcNAc(b1-3)Gal(b1-4)GlcNAc
# Procedure, shortened: as §1
# [13] = biological target: Gal(b1-3)GlcNAc(b1-3)Gal(b1-4)GlcNAc(b1-2)Man(a1-3)[Gal(b1-3)GlcNAc(b1-3)Gal(b1-4)GlcNAc(b1-2)Man(a1-6)]Man(b1-4)GlcNAc(b1-4)GlcNAc
# Procedure, shortened: as §1
# [14] = biological target: Gal(b1-3)GlcNAc(b1-3)Gal(b1-4)GlcNAc(b1-2)[Gal(b1-3)GlcNAc(b1-3)Gal(b1-4)GlcNAc(b1-6)]Man(a1-6)[Gal(b1-3)GlcNAc(b1-3)Gal(b1-4)GlcNAc(b1-2)Man(a1-3)]Man(b1-4)GlcNAc(b1-4)[Fuc(a1-6)]GlcNAc
# Procedure, shortened: as §1
# [15] = biological target: Gal(b1-3)GlcNAc(b1-3)Gal(b1-4)GlcNAc(b1-3)Gal(b1-4)GlcNAc(b1-2)[Gal(b1-3)GlcNAc(b1-3)Gal(b1-4)GlcNAc(b1-3)Gal(b1-4)GlcNAc(b1-6)]Man(a1-6)[Gal(b1-3)GlcNAc(b1-3)Gal(b1-4)GlcNAc(b1-3)Gal(b1-4)GlcNAc(b1-2)Man(a1-3)]Man(b1-4)GlcNAc(b1-4)[Fuc(a1-6)]GlcNAc
# Procedure, shortened: as §1
# [16] = biological target: Gal(b1-3)GlcNAc(b1-3)Gal(b1-4)GlcNAc(b1-6)[Gal(b1-3)GlcNAc(b1-3)]Gal(b1-4)Glc
# Procedure, shortened: as §1
# [17] = biological target: Gal(b1-3)GlcNAc(b1-3)Gal(b1-4)[Fuc(a1-3)]GlcNAc
# Procedure, shortened: as §1
# [18] = biological target: Gal(b1-3)GlcNAc(b1-3)Gal(b1-4)[Fuc(a1-3)]GlcNAc(b1-6)[Gal(b1-3)GlcNAc(b1-3)]Gal(b1-4)Glc
# Procedure, shortened: as §1
# [19] = biological target: Gal(b1-3)GlcNAc(b1-3)GalNAc
# Procedure, shortened: as §1
# [20] = biological target: Gal(b1-3)GlcNAc(b1-6)Gal(b1-4)GlcNAc
# Procedure, shortened: as §1
# [21] = biological target: Gal(b1-3)GlcNAc(b1-6)GalNAc
# Procedure, shortened: as §1
# [22] = biological target: Gal(b1-3)GlcNAc(b1-6)[Gal(b1-3)]GalNAc
# Procedure, shortened: as §1
# Gal(b1-3)GlcNAc6S = biological target: Gal(b1-3)GlcNAc6S
# Procedure, shortened: as §1
# [23] = biological target: Gal(b1-3)[Fuc(a1-4)]GlcNAc
# Procedure, shortened: as §1
# [24] = biological target: Gal(b1-3)[Fuc(a1-4)]GlcNAc(b1-2)Man
# Procedure, shortened: as §1
# [25] = biological target: Gal(b1-3)[Fuc(a1-4)]GlcNAc(b1-2)Man(a1-3)[Gal(b1-3)[Fuc(a1-4)]GlcNAc(b1-2)Man(a1-6)]Man(b1-4)GlcNAc(b1-4)[Fuc(a1-6)]GlcNAc
# Procedure, shortened: as §1
# [26] = biological target: Gal(b1-3)[Fuc(a1-4)]GlcNAc(b1-3)Gal(b1-3)[Fuc(a1-4)]GlcNAc
# Procedure, shortened: as §1
# [27] = biological target: Gal(b1-3)[Fuc(a1-4)]GlcNAc(b1-3)Gal(b1-4)[Fuc(a1-3)]GlcNAc
# Procedure, shortened: as §1
# [28] = biological target: Gal(b1-3)[Fuc(a1-4)]GlcNAc(b1-6)GalNAc
# Procedure, shortened: as §1
# [29] = biological target: Gal(b1-3)[GlcNAc(b1-6)]GalNAc
# Procedure, shortened: as §1
# [30] = biological target: Gal(b1-3)[Neu5Ac(a2-6)]GalNAc
# Procedure, shortened: as §1
# [31] = biological target: Gal(b1-3)[Neu5Ac(a2-6)]GlcNAc(b1-4)Gal(b1-4)Glc
# Procedure, shortened: as §1
# [32] = biological target: Gal(b1-3)[Neu5Ac(b2-6)]GalNAc
# Procedure, shortened: as §1
# Gal(b1-4)Gal = biological target: Gal(b1-4)Gal
# Procedure, shortened: as §1
# [33] = biological target: Gal(b1-4)GalNAc(a1-3)[Fuc(a1-2)]Gal(b1-4)GlcNAc
# Procedure, shortened: as §1
# [34] = biological target: Gal(b1-4)GalNAc(b1-3)[Fuc(a1-2)]Gal(b1-4)GlcNAc
# Procedure, shortened: as §1
binder,measurement,setting,value
Clec18C (Homo sapiens) (protein) MLHPETSPGRGHLLAVLLALLGTAWAEVWPPQLQEQAPMAGALNRKESFLLLSLHNRLRSWVQPPAADMRRLDWSDSLAQLAQARAALCGTPTPSLASGLWRTLQVGWNMQLLPAGLVSFVEVVSLWFAEGQRYSHAAGECARNATCTHYTQLVWATSSQLGCGRHLCSAGQAAIEAFVCAYSPRGNWEVNGKTIVPYKKGAWCSLCTASVSGCFKAWDHAGGLCEVPRNPCRMSCQNHGRLNISTCHCHCPPGYTGRYCQVRCSLQCVHGRLREEECSCVCDIGYGGAQCATKVHFPFHTCDLRIDGDCFMVSSEADTYYRARMKCQRKGGVLAQIKSQKVQDILAFYLGRLETTNEVIDSDFETRNFWIGLTYKTAKDSFRWATGEHQAFTSFAFGQPDNHGFGNCVELQASAAFNWNNQRCKTRNRYICQFAQEHISRWGPGS,glycan array binding signal (z-score),[1],0.537
same,glycan array binding signal (z-score),[2],-0.216
same,glycan array binding signal (z-score),[3],0.031
same,glycan array binding signal (z-score),Gal(b1-3)GlcNAc,-0.159
same,glycan array binding signal (z-score),[4],-0.264
same,glycan array binding signal (z-score),[5],0.983
same,glycan array binding signal (z-score),Gal(b1-3)GlcNAc(b1-2)Man,-0.181
same,glycan array binding signal (z-score),[6],1.5
same,glycan array binding signal (z-score),[7],0.158
same,glycan array binding signal (z-score),[8],-0.03
same,glycan array binding signal (z-score),[9],-0.547
same,glycan array binding signal (z-score),[10],-0.443
same,glycan array binding signal (z-score),[11],-0.457
same,glycan array binding signal (z-score),[12],-0.118
same,glycan array binding signal (z-score),[13],-0.036
same,glycan array binding signal (z-score),[14],-0.346
same,glycan array binding signal (z-score),[15],2.71
same,glycan array binding signal (z-score),[16],0.044
same,glycan array binding signal (z-score),[17],-0.23
same,glycan array binding signal (z-score),[18],-0.432
same,glycan array binding signal (z-score),[19],-0.404
same,glycan array binding signal (z-score),[20],-0.291
same,glycan array binding signal (z-score),[21],1.6
same,glycan array binding signal (z-score),[22],0.043
same,glycan array binding signal (z-score),Gal(b1-3)GlcNAc6S,1.78
same,glycan array binding signal (z-score),[23],0.006
same,glycan array binding signal (z-score),[24],0.037
same,glycan array binding signal (z-score),[25],-0.396
same,glycan array binding signal (z-score),[26],-0.594
same,glycan array binding signal (z-score),[27],-0.528
same,glycan array binding signal (z-score),[28],-0.263
same,glycan array binding signal (z-score),[29],4.42
same,glycan array binding signal (z-score),[30],-0.24
same,glycan array binding signal (z-score),[31],1.42
same,glycan array binding signal (z-score),[32],-0.502
same,glycan array binding signal (z-score),Gal(b1-4)Gal,1.61
same,glycan array binding signal (z-score),[33],1.12
same,glycan array binding signal (z-score),[34],1.57

# — the supplement of paper PMC8728848
